Measured values: PubChem BioAssay AID1030 (National Center for Advancing Translational Sciences (NCATS), 2008)
Values joined by “and” are separate entries in the source; they are usually repeats but may differ in a detail not shown here. Equal entries are not always repeated. Out of some 220,000 compounds screened, about 16,000 (7.3%) were called active. The shares of active, inactive and inconclusive entries below differ from those in the screen. The call rests on the fitted dose curve; in most records, active means well fitted inhibition curve with a large enough effect (not every such curve was filed as active); inconclusive means small, poorly fitted or top-dose-only effect, or another doubt; inactive means no such curve, though single readings can be large or run the other way. Where the call is inconclusive, the potency comes from a doubtful curve fit.

molecular target: Aldehyde dehydrogenase 1A1 (Homo sapiens) (UniProt P00352); assay: qHTS Assay for Inhibitors of Aldehyde Dehydrogenase 1 (ALDH1A1); details: Purified ALDH1A1, NADH fluorescence, propionaldehyde substrate; series mostly up to 75.3 µM
UniProt P00352, sequence (P00352 whole entry, looked up): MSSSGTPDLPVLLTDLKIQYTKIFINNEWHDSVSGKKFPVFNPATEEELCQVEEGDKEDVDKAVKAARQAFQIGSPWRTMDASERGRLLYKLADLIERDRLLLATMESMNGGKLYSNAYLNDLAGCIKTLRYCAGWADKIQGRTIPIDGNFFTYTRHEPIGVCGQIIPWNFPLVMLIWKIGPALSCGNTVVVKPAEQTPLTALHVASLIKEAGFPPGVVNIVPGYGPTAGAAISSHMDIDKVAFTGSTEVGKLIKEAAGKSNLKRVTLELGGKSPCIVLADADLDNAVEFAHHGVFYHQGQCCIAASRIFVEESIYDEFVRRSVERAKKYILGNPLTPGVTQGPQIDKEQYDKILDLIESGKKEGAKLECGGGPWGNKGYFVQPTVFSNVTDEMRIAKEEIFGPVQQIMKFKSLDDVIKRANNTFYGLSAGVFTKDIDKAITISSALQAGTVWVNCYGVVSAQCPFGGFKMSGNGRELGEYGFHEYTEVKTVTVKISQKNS
Potency means the concentration at half of the fitted maximal effect; tags describe the fitted curve by direction and shape.

Potency, inconclusive:
CCC(C)C1NC(=S)N(C2CCCCC2)C1=O (stereo unspecified) 39.8 µM [inhibitor, single point]
Cc1ccccc1-c1nccc(NCc2cccnc2)n1 25.1 µM [inhibitor, partial curve]
COC(=O)C(N)Cc1ccc(OC)c([N+](=O)[O-])c1 (stereo unspecified) 31.6 µM [inhibitor, single point]
COc1ccc(CN2CCNC(=O)C2CC(=O)NC2Cc3ccccc3C2)c(OC)c1 (stereo unspecified) 39.8 µM [inhibitor, single point]
CC(=O)Nc1ccc(-c2csc(NC(=O)CCCc3cccs3)n2)cc1 31.6 µM [inhibitor, single point]
COc1cccc(-c2nc(-c3ccc4c(c3)-c3ccccc3S4(=O)=O)c(-c3ccccc3)[nH]2)c1OC 28.2 µM [inhibitor, partial curve]
CCOc1ccc(S(=O)(=O)N(C)CCO)cc1-c1nc2c(C(C)(C)C)nn(C)c2c(=O)[nH]1 39.8 µM [inhibitor, single point]
Cc1cccc(NC(=S)NC(=O)c2ccc(Br)o2)c1 39.8 µM [inhibitor, single point]
O=C(COC(=O)Cc1ccc(S(=O)(=O)N2CCCCC2)s1)Nc1ccc2c(c1)OCO2 35.5 µM [inhibitor, single point]
O=C(c1ccc(S(=O)(=O)N2CCOCC2)cc1)N1CCc2ccccc2C1 25.1 µM [inhibitor, single point]
CCOC(=O)N1CCN(C(=O)CCCn2nc(C)c3sc4ccccc4c3c2=O)CC1 15.8 µM [inhibitor, partial curve]
CCCN(CCC)c1ccc(/C=N/NC(=O)CN2CCOCC2)cc1 28.2 µM [inhibitor, partial curve]
COc1ccc(CCNC(=O)c2cc3c(=O)n4cccc(C)c4nc3n(Cc3ccncc3)c2=N)cc1 39.8 µM [inhibitor, single point]
C=CCN(CC=C)CCOc1cccc2ccccc12 39.8 µM [inhibitor, single point]
Cc1nn2c(=S)[nH]nc2[nH]c1=O 39.8 µM [inhibitor, single point]
O=C1CC(c2ccco2)CC(O)=C1C=NCC1NCCc2ccccc21 (stereo unspecified) 39.8 µM [inhibitor, single point]
COc1ccc(/C=C2/SC(=S)N(CCC(=O)O)C2=O)cc1 39.8 µM [inhibitor, single point]
CCOC(=O)CSc1nnc(CSc2nc3ccccc3s2)n1C 39.8 µM [inhibitor, single point]
COc1ccc(S(=O)(=O)Nc2ccccc2SC)cc1C 39.8 µM [inhibitor, single point]
Cc1ccc(NCc2ccc(Cl)nc2)c(NCc2ccc(Cl)nc2)c1 39.8 µM [inhibitor, single point]
Cn1ccnc1SCCNC(=O)CCc1nnc(CCCCc2ccccc2)o1 0.0447 µM [inhibitor, full curve, poor fit]
O=S(=O)(c1ccc(NC(=S)NCc2ccco2)cc1)N1CCCC1 39.8 µM [inhibitor, single point]
CN(C)CCCNc1oc(-c2ccc(Cl)cc2)nc1C#N 22.4 µM [inhibitor, partial curve]
Cn1c(=O)c(=O)n(C)c2cc(S(=O)(=O)N3CCN(C4CCCCC4)CC3)ccc21 22.4 µM [inhibitor, single point]
O=c1/c(=C\c2ccc(F)cc2)sc2n1CCCN=2 25.1 µM [inhibitor, single point]
CCSC1=C(C#N)C2(CCCC2)C(C#N)=C(N)N1 14.1 µM [inhibitor, partial curve]
COc1ccccc1Nc1nc(-c2c(C)nc3ncccn23)cs1 39.8 µM [inhibitor, single point]
COc1ccc(S(=O)(=O)CCC(=O)NCCc2cccc(C)c2)cc1 39.8 µM [inhibitor, single point]
Nc1nc(=S)n(-c2ccccc2)[nH]1 31.6 µM [inhibitor, single point]
CCCCn1c(-c2ccc(Cl)cc2)nc2c(=O)n(C)c(=O)[nH]c21 3.77 µM [inhibitor, full curve]
COC(C(=O)Nc1ccccc1F)c1ccccc1 (stereo unspecified) 10 µM [inhibitor, partial curve, poor fit]
COc1cccc(Cn2c(=O)c(-c3cccs3)nc3cnc(OC)nc32)c1 28.2 µM [inhibitor, partial curve]
COCCNC(=S)N/N=C(\C)c1ccccc1F 39.8 µM [inhibitor, single point]
O=C(CSc1nnc(-c2ccc(Cl)cc2)n1Cc1ccco1)c1cccs1 39.8 µM [inhibitor, single point]
CCOc1ccccc1Oc1c(C)oc2c(CN3CCN(C)CC3)c(O)ccc2c1=O 28.2 µM [inhibitor, partial curve]
NCCOB(c1ccccc1)c1ccccc1 44.7 µM [inhibitor, single point] and 28.2 µM [inhibitor, single point] and 39.8 µM [inhibitor, single point]
CN(C)Cc1cc(O)c(CN(C)C)cc1O 12.6 µM [inhibitor, partial curve]
Cc1cc(C(=O)CSc2nnc(-c3ccncc3)n2-c2ccccc2)c(C)n1C 22.4 µM [inhibitor, single point]
CC1(C)C=Cc2cc3ccc(=O)oc3cc2O1 31.6 µM [inhibitor, partial curve]
CCC1CCCCN1C(=S)NC(=O)c1cccs1 (stereo unspecified) 31.6 µM [inhibitor, single point]
Cc1sc2nc(CSc3ncn[nH]3)[nH]c(=O)c2c1C 39.8 µM [inhibitor, single point]

Potency, inactive:
O=C(CCc1ccccc1)NNC(=O)c1cccc(F)c1
Cc1ccccc1CS(=O)(=O)CCC(=O)NCCCN1CCN(c2ccccc2F)CC1
Cc1ccc(C)c(NC(=O)CS(=O)(=O)c2cccc3nsnc23)c1
COc1cc(/C=C(/C#N)c2nc3ccccc3c(=O)[nH]2)ccc1O
C/C(=N/N=C1/NC(=O)CC(C(=O)Nc2ccccc2)S1)c1cccs1 (stereo unspecified)
COc1ccc(N(CC(=O)NCC(C)C)S(=O)(=O)c2ccccc2)cc1
CCOC(=O)NC(=O)c1cn(N(C)c2ncc(C(F)(F)F)cc2Cl)c(=O)[nH]c1=O
CN(C)N(C)C(=O)C(O)(c1ccccc1)c1ccccc1
Cc1onc(-c2c(F)cccc2Cl)c1C(=O)N[C@H]1C(=O)N2[C@H]1SC(C)(C)[C@H]2C(=O)O
CSc1ncccc1C(=O)OCc1ccccc1
N/C(=N\OC(=O)c1ccc(Cl)cc1)c1cccnc1
COc1cnc(-c2ccccn2)nc1NC(C)C
Cc1ccccc1C(C(=O)NC1CCCCC1)N(C(=O)c1ccccn1)c1cccnc1 (stereo unspecified)
CSc1ccc(/C=N/N2CCN(C)CC2)cc1
C=C1N(c2ccccc2)C(=O)OC1(C)C
C/C(=N/NC(=O)Cc1ccccc1)c1ccc(C)s1
O=C(Nc1ccc(Oc2ccc(C(F)(F)F)cn2)c(Cl)c1)C1CC1
N[C@H](Cc1cc(I)c(Oc2cc(I)c(O)c(I)c2)c(I)c1)C(=O)O
O=C(NCC1CCCO1)c1ccc(Br)o1 (stereo unspecified)
O=C(C/C(=N\NC(=O)c1ccccc1Br)C(F)(F)F)c1cccs1
CCCC(=O)NC(=S)Nc1cccc(C(C)=O)c1

Potency, active:
CN(CCCNC(=O)c1cc2c(Cl)nc3ccccc3c2s1)Cc1ccccc1 28.2 µM
Oc1c(N=NC(=S)Nc2ccccc2F)c2ccccc2n1Cc1cccc(Cl)c1 0.398 µM
Cn1c(=O)c2c(nc(CN3CCN(C(=O)c4ccco4)CC3)n2Cc2ccccc2F)n(C)c1=O 12.6 µM
CCCCOC(=O)c1ccc(NC(=S)NC(=O)c2c(Br)c(C)nn2C)cc1 3.98 µM
COc1cc(/C=C2/NC(=O)N(Cc3ccccc3F)C2=O)cc(OC)c1O 10 µM
Cc1cc(C=C2C(=O)c3ccccc3C2=O)c(C)n1-c1ccc(Cl)cc1 2.24 µM
Cn1c(Cc2csc(N)n2)nnc1SCC(=O)NCc1ccccc1 28.2 µM
CC(=O)N1CCN(CC(=O)Nc2cc([N+](=O)[O-])ccc2Cl)CC1 35.5 µM
O=C1C(=Cc2ccco2)C(=O)c2ccccc21 12.6 µM
COc1ccc(-c2nc(=S)[nH][nH]2)cc1 12.6 µM
C=CCn1c(N)c(C(=O)NCCC2=CCCCC2)sc1=S 3.55 µM
Fc1ccccc1Nc1n[nH]c(=S)s1 7.08 µM
O=C1CCCC(=O)C1CS(=O)(=O)c1ccccc1 12.6 µM
Cn1c(=O)c([N+](=O)[O-])c(NCc2ccccc2)c2ccccc21 15.8 µM
